# PubChem BioAssay AID652104 (National Center for Advancing Translational Sciences (NCATS), 2013)
# The whole screen tested about 410,000 compounds, of which about 7,200 (1.8%) were called active. The inconclusive results got no clear call from the source; some entries with a clear call stand among them for comparison. Calls come from the whole dose curve; as a rule, active = well fitted activation curve with a large enough effect; inconclusive = small, poorly fitted or top-dose-only effect, or another doubt; inactive = no such curve, though single readings can be large or run the other way. No potency is given beside an inconclusive call; the fits are too rough.
# Experiment: qHTS of TDP-43 Inhibitors; note: nearly all actives have a fitted effect of over 50% in size; for growth rescue (activation): % of control where 0% means no effect
# Details: TDP-43 expressing yeast growth rescue, BacTiter-Glo, 24 h; growth rescue (activation): at 46.1 µM (top of the series) unless noted
# Outline: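 Growth rescue of TDP-43-toxic yeast measured as ATP luminescence (BacTiter-Glo). Cells grown to mid-log in raffinose, induced in galactose at OD600=0.02, exposed to compound 24 hr at 30 deg C.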
# Potency is the fitted concentration of half-maximal effect; tags give direction and shape of the fitted curve.
SMILES,Potency,growth rescue (activation)
OC[C@@H]1CN(Cc2ccc(-c3ccccc3)cc2)C[C@H](n2cnc3c(NC4CC4)ncnc32)O1,"inconclusive [activator, single point]",–
Cc1cc(C)n(CCc2nc3c4ccccc4nc(SCc4ccc(Cl)cc4)n3n2)n1,"inconclusive [activator, full curve, poor fit]",–
O=C1c2c(Br)c(Br)c(Br)c(Br)c2C(=O)N1c1ccccn1,"inconclusive [activator, single point]",–
Cc1ccc(C(C)C)c(OCC(=O)NCC2(N3CCOCC3)CCCCC2)c1,–,inactive: 7.52%
Cc1cc(C)c2oc(C(=O)Nc3c(C)n(C)n(-c4ccccc4)c3=O)cc(=O)c2c1,"inconclusive [activator, partial curve]",–
COc1ccc(-c2nc3cnccn3c2NCc2ccccc2)cc1SC1CCCCC1,"inconclusive [activator, single point]",–
Cn1c2ccccc2c2c(=O)oc3ccccc3c21,"inconclusive [activator, full curve, poor fit]",–
Brc1ccc(OCc2nnnn2-c2ccccc2)cc1,active: 22.4 µM,–
CCc1cc2c(cc3c(=O)n(CC(=O)NC4CCCCC4)nc(CC)n32)s1,"inconclusive [activator, partial curve, poor fit]",–
CCOC(=O)N1CCN(Cc2nc3c(c(=O)n(C)c(=O)n3C)n2Cc2cccc(C)c2)CC1,"inconclusive [activator, single point]",–
S=C(Nc1ccccc1)N1CCn2c1nc1ccccc12,"inconclusive [activator, partial curve]",–
CC(=O)NC(O)C(=O)c1ccccc1 (stereo unspecified),"inconclusive [activator, partial curve]",–
CC(=O)c1ccc(N2CCN(C(=O)COc3ccccc3F)CC2)c(F)c1,"inconclusive [activator, single point]",–
O=C(O)CCc1nc2cc(C(F)(F)F)ccc2n(Cc2ccccc2)c1=O,"inconclusive [activator, single point]",–
Cc1ccc2c(=O)cc(C(=O)N(Cc3ccccc3Cl)C3CCS(=O)(=O)C3)oc2c1 (stereo unspecified),–,inactive: 0.919%
CC1(OC(=O)C2CCCC2)C(=O)C=C2C=C(c3ccc(C#N)cc3)OC=C2C1=O (stereo unspecified),"inconclusive [activator, partial curve]",–
COc1cccc(-c2csc(N3CCN(C(=O)Nc4ccc(Cl)cc4)CC3)n2)c1,active: 11.2 µM,–
COc1cc(Cl)c(C)cc1NC(=O)Cc1cccs1,"inconclusive [activator, full curve, poor fit]",–
COC(=O)c1c(N)sc(Cc2ccccc2)c1C,"inconclusive [activator, single point]",–
Cc1ccc(-n2nc3c(c2NC(=O)c2ccccc2Br)CS(=O)C3)cc1 (stereo unspecified),"inconclusive [activator, partial curve]",–
Cc1cc(-c2csc(N)n2)c(C)n1-c1ccc(Cl)c(Cl)c1,"inconclusive [activator, single point]",–
Cc1cc(C)c(C)c(S(=O)(=O)ON2C(=O)c3ccccc3C2=O)c1C,active: 5.62 µM,–

SMILES,Potency,growth rescue (activation)
COc1ccc(C2C=C(c3ccccc3)Nc3ncnn32)cc1 (stereo unspecified),"inconclusive [activator, single point]",–
COc1cc(/C=C/C(=O)Nc2ccc(N3CCCCC3)c(S(=O)(=O)Nc3ccccc3Cl)c2)cc(OC)c1OC,"inconclusive [activator, partial curve]",–
CCOc1ccccc1NC(=O)Nc1cc2c(cc1N1CCCCC1)n(CC)c(=O)n2CC,–,inactive: 0%
Cc1cccc(C(=O)Nc2nnc(-c3ccco3)o2)c1,"inconclusive [activator, single point]",–
O=C(O)c1cc([N+](=O)[O-])ccc1NCc1cccnc1,–,inactive: 6.56%
c1nc2sc3c(c2c2nnnn12)CCC3,"inconclusive [activator, partial curve]",–
O=[N+]([O-])c1ccc(Oc2cccc(Br)c2)c2ccncc12,active: 15.8 µM,–
CCN(C(=O)C1CCCN(c2ncnc3c2nc2n3CCCCC2)C1)c1cccc(C)c1 (stereo unspecified),active: 14.1 µM,–
CC(NC(=O)Cc1ccccc1F)c1ccc(F)cc1 (stereo unspecified),"inconclusive [activator, partial curve]",–
COc1ccc(-n2nc(C(=O)NCC(=O)N3CCN(c4ccccc4F)CC3)c3ccccc3c2=O)cc1OC,"inconclusive [activator, single point]",–
S=C(Nc1ccc2nsnc2c1)N1CCCCC1,"inconclusive [activator, partial curve]",–
CCOC(=O)[C@]12CCCC=C1N(CCC1=CCCCC1)C(=O)[C@H](CC(=O)NCc1cccc3ccccc13)C2,active: 35.5 µM,–
NC(=O)c1c(NC(=O)c2ccc(F)cc2)sc2c1CCC2,"inconclusive [activator, partial curve]",–
COc1ccc(Cl)cc1NC(=O)CN(C)C(=O)c1sc2ccccc2c1Cl,"inconclusive [activator, partial curve, poor fit]",–
CC(=NO)c1ccc2c(c1)Cc1cc([N+](=O)[O-])ccc1-2,"inconclusive [activator, partial curve]",–
CCc1ccccc1NS(=O)(=O)c1cc2c(cc1C)n(C)c(=O)c(=O)n2C,–,inactive: 0%
O=C(CCc1nc(-c2ccccc2F)no1)NCCc1ccccc1Cl,"inconclusive [activator, partial curve]",–
COc1ccc2oc3cc(C)[n+]([O-])c(-c4ccc(Cl)cc4)c3c2c1,"inconclusive [activator, partial curve]",–
COc1cccc(C(=O)N(Cc2ccco2)c2ccccn2)c1,–,inactive: 7.04%
COc1ccc(C#Cc2ccc3c(=O)c4ccccc4n(C)c3c2)cc1,"inconclusive [activator, partial curve]",–
Cc1c(/C(O)=C2\C(=O)C(=O)N(CCN(C)C)C2c2cccs2)cnn1-c1ccccc1 (stereo unspecified),"inconclusive [activator, full curve, poor fit]",–
O=c1c2ccccc2nc(-c2ccccc2)n1Cc1ccco1,"inconclusive [activator, single point]",–

SMILES,Potency,growth rescue (activation)
COc1ccc(CCNC(=O)CSCc2ccc(C)cc2)cc1OC,"inconclusive [activator, full curve, poor fit]",–
O=S(=O)(c1ccc(-c2csc(=Nc3ccc(OC(F)(F)Cl)cc3)n2CCCO)cc1)N1CCCC1,"inconclusive [activator, single point]",–
COC(=O)c1ccc2c(C)c(C3(O)CCCCC3)[nH]c2c1,active: 20 µM,–
Cc1ccsc1C1C=C(c2cccc(Br)c2)Nc2ncnn21 (stereo unspecified),"inconclusive [activator, single point]",–
Cc1cc(C(=O)Nc2nc(-c3ccccn3)cs2)ccc1[N+](=O)[O-],–,inconclusive: -64.4% [activator]
CCOC(=O)c1cn(-c2nc(-c3ccc(Cl)c(Cl)c3)cs2)c2c(F)c(N3CCOCC3)c(F)cc2c1=O,"inconclusive [activator, partial curve]",–
O=C(O)CC1(Cc2nc(-c3cccs3)no2)CCCC1,"inconclusive [activator, single point]",–
COc1cccc(C2SCC(=O)N2c2ccc(Br)cc2)c1OC (stereo unspecified),"inconclusive [activator, single point]",–
Cc1cc(C)c(C(=O)COC(=O)CCNS(=O)(=O)c2c(Cl)cccc2Cl)cc1C,"inconclusive [activator, single point]",–
CC1Oc2cc3oc4c(O)c(O)ccc4c(=O)c3c(O)c2C1(C)C (stereo unspecified),"inconclusive [activator, single point]",–
CCC(=O)NC(c1ccc(OC)cc1)c1c(O)ccc2ccccc12 (stereo unspecified),–,inactive: 0.506%
C/C(=N\NC(=O)c1ccc(CN2CCOCC2)cc1)c1ccc([N+](=O)[O-])cc1,"inconclusive [activator, full curve, poor fit]",–
COc1cc2c(cc1OC)C(C)N(C(=O)c1cccs1)CC2 (stereo unspecified),–,inactive: 28.5%
CCC1(C)NC(=O)N(CC(=O)Nc2sc3c(c2C(N)=O)CCC3)C1=O (stereo unspecified),"inconclusive [activator, single point]",–
COc1ccc(CCNC(=O)C2CC(c3ccccc3C(F)(F)F)=NO2)cc1 (stereo unspecified),"inconclusive [activator, single point]",–
N#Cc1ccc(-c2nc3ccc(Cl)cn3c2Cc2ccsc2)cc1,"inconclusive [activator, single point]",–
CC(C)Oc1ccc(Cn2c(=O)sc3ccccc32)cc1,"inconclusive [activator, partial curve]",–
CCn1cc(S(=O)(=O)N2CCN(c3ccc(Cl)cc3)CC2)cn1,"inconclusive [activator, partial curve, poor fit]",–
COc1cc(Cl)c(C)cc1NC(=O)CSc1nc2c(c(=O)[nH]1)CCCC2,–,inactive: 0%
COC(=O)C1=C(C)N(Cc2ccccc2)C(=O)N[C@H]1c1cccc(C(F)(F)F)c1,"inconclusive [activator, single point]",–
COC(=O)N1CCCc2cc(S(=O)(=O)N3CCN(c4ccccc4)CC3)ccc21,–,inactive: 9.47%
CC(=O)C1=CCC(c2ccc(Cl)cc2)N(S(=O)(=O)c2ccccc2C)C1 (stereo unspecified),"inconclusive [activator, partial curve]",–
